# Test results reported in PubChem BioAssay AID686971 (National Center for Advancing Translational Sciences (NCATS), 2013).
# The whole screen tested about 360,000 compounds, of which about 7,500 (2.1%) were called active. Inconclusive results, whose numbers are uncertain, are shown with a selection of clear calls. Calls follow the shape of the dose curve; as a rule, active = well fitted cell-killing curve with a large enough effect; inconclusive = small, poorly fitted or top-dose-only effect, or effect the other way, or another doubt; inactive = no such curve, though single readings can be large or run the other way. Potencies of inconclusive entries are left out as doubtful fits.
# Assay: qHTS for induction of synthetic lethality in tumor cells producing 2HG: qHTS for the HT-1080-IDH1KD cell line
# Settings: HT-1080 IDH1 knockdown viability, ATP luminescence, 48 h; series mostly up to 46.1 µM
# How it was run: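 Luminescent ATP read-out (CellTiter-Glo, 10 min at room temperature) after 48 h compound exposure at 37 °C gave viability of IDH1-knockdown HT-1080 cells. Activity was normalised to DMSO and cell-free wells, then fitted as concentration-response curves.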
# Potency is read from the fitted curve at half-maximal effect; tags tell the direction and shape of the fitted curve.
row,SMILES,Potency
1,COc1ccc(NC(=S)N2CCN(S(=O)(=O)c3ccc(OC)cc3)CC2)cc1,inactive
2,O=C(Nc1ccc(Br)cn1)c1cccc2ccccc12,active: 5.8 µM
3,O=c1c(F)cn(C2CCCO2)c(=O)n1Cc1ccccc1F (stereo not given),"inconclusive [rising, partial curve, poor fit]"
4,Cn1c(CCN2CCOCC2)nc2cc(NS(=O)(=O)c3ccccc3)ccc21,inactive
5,COc1ccc(OC)c(NC(=O)C2(C)CCN2Cc2ccc(SC)cc2)c1 (stereo not given),inactive
6,Cc1c(C)c2ccc(OCC(=O)Nc3ccccc3C(N)=O)cc2oc1=O,inactive
7,CCCCNCC(O)(c1ccc(Cl)cc1)c1ccc(Cl)cc1,active: 18.4 µM
8,CCCc1cc(C(=O)N/N=C/c2ccc(C)o2)c2ccccc2n1,active: 20.6 µM
9,Cc1cc(C)c2c(n1)nn1c(N3CCN(c4ccccc4)CC3)cc(C)nc21,"inconclusive [cytotoxic, single point]"
10,Cc1ccc(C(=O)Nc2nc(C(N)C(C)C)cs2)cc1 (stereo not given),inactive
11,Cc1cccc(NC(=O)C2C(c3ccccc3)C2(Cl)Cl)c1 (stereo not given),inactive
12,Cc1cc(=O)oc2c(CN3CC(C)OC(C)C3)c(O)c(Cl)cc12 (stereo not given),"inconclusive [rising, single point]"
13,CCS(=O)(=O)Nc1ccc(C2=NN(C(=S)Nc3ccccc3)C(c3ccco3)C2)cc1 (stereo not given),"inconclusive [cytotoxic, single point]"
14,CC(C)(C)NC(=O)C[C@H]1C[C@H](C(=O)N2CCOCC2)[C@@]2(C)c3[nH]c4cc(-c5ccco5)ccc4c3CCN2C1=O,inactive
15,Cc1cccc(-c2ocnc2C(=O)Nc2ccccc2NC(=O)c2ccccn2)c1,"inconclusive [cytotoxic, partial curve]"
16,CC(C)COc1ccc(C(=O)CCN2CCCCC2)cc1,"inconclusive [cytotoxic, single point]"
17,COc1ccc(Cl)cc1NC(=O)CN(C)CC(=O)Nc1ccccc1-c1ccccc1,"inconclusive [cytotoxic, single point]"
18,CCOc1ccc(-c2nnc(SCc3nnc(-c4ccccc4)o3)n2-c2ccccc2F)cc1,inactive
19,Cc1ccccc1-c1cnc(C(O)c2ccc(F)c(F)c2)[nH]1 (stereo not given),inactive
20,O=C(N/N=C/c1cccs1)c1cc(-c2ccc3ccccc3c2)n[nH]1,"inconclusive [cytotoxic, single point]"
21,CCCCNC(=O)CSc1nccn1Cc1ccccc1,"inconclusive [rising, single point]"
22,CC(=O)Nc1ccc(CNc2nc(NCc3cccs3)nc3ccsc23)cc1,"inconclusive [cytotoxic, single point]"
23,CCOC(=O)c1c(C)nc2sc(C(=O)Nc3ccc(OC)cc3)c(N)c2c1-c1ccc(OC)cc1,"inconclusive [cytotoxic, single point]"

row,SMILES,Potency
1,COc1ccc(Sc2ccc(NC(=O)c3cccc(Cl)c3)cc2C#N)cc1,"inconclusive [cytotoxic, single point]"
2,Cc1c(NC(=O)COC(=O)CSc2ccc([N+](=O)[O-])cc2)c(=O)n(-c2ccccc2)n1C,inactive
3,O=C(CN1CCN(C(=O)CNC(=O)c2ccc(-c3ccccc3)cc2)CC1)Nc1ccccc1Cl,"inconclusive [cytotoxic, single point]"
4,CCCC(=O)Nc1nc2ccc(NC(=O)c3ccccc3F)cc2s1,"inconclusive [cytotoxic, full curve]"
5,O=C(COc1ccc([N+](=O)[O-])cc1)NNC(=O)Nc1ccccc1F,active: 3.66 µM
6,CS(=O)(=O)c1cccc(C(=O)Nc2cccc(-c3nc4ccccc4[nH]3)c2)c1,"inconclusive [cytotoxic, single point]"
7,Cc1ccc2c(c1)c1ccc3c(c1n2C)C(=O)C=CC3=O,inactive
8,CCCCN(C)C(=O)c1ccc(Nc2nc(C(N)COCc3ccccc3)cs2)nc1 (stereo not given),"inconclusive [cytotoxic, single point]"
9,OCC1(Cc2ccccc2F)CCCN(Cc2c(F)ccc(F)c2F)C1 (stereo not given),"inconclusive [cytotoxic, single point]"
10,CC1CCN(C(=O)C2CCCN2S(=O)(=O)c2ccc(Cl)cc2)CC1 (stereo not given),inactive
11,CC(C(=O)Nc1ccccc1Cl)N(c1ccccc1)S(C)(=O)=O (stereo not given),"inconclusive [rising, partial curve]"
12,O=C(Nc1ccc(-c2cscn2)cc1)C1CCCN(Cc2ccccc2)C1 (stereo not given),"inconclusive [cytotoxic, single point]"
13,Cc1ccc(OCc2cc(C(=O)NCc3cn4ccccc4n3)no2)cc1C,inactive
14,CCN1CCN(c2ccc(Cl)cc2NC(=O)c2ccc(-n3nc(C)cc3C)cc2)CC1,"inconclusive [cytotoxic, single point]"
15,CCSC1=C(C#N)C(c2ccccc2Cl)C(C(=O)c2cccs2)C(O)(C(F)(F)F)N1 (stereo not given),"inconclusive [cytotoxic, single point]"
16,COc1ccccc1S(=O)(=O)N(C)C[C@H]1Oc2cc(Br)ccc2S(=O)(=O)N([C@@H](C)CO)C[C@H]1C,inactive
17,COc1ccc(C(CCNC(C)c2ccccc2)c2ccc(F)cc2)cc1 (stereo not given),active: 18.4 µM
18,COc1ccccc1N=CC=C1OC(C)(C)C(C)(C)O1,"inconclusive [cytotoxic, single point]"
19,Nc1cnn(Cc2ccccc2F)c1,"inconclusive [cytotoxic, single point]"
20,Cc1ccccc1C(=O)N(Cc1nc2ccccc2c(=O)[nH]1)C1CCCC1,"inconclusive [cytotoxic, single point]"
21,COC(=O)C1=C(C)N(Cc2ccccc2)C(=NCc2cccc(C(F)(F)F)c2)N[C@H]1c1cccc(F)c1,"inconclusive [cytotoxic, single point]"
22,CCN(CC)c1ccc2c(cc1=O)[C@@H](NC)CCc1cc(OC)c(OC)c(OC)c1-2,"inconclusive [cytotoxic, full curve]"
